Measurements as given in the RNAGym collection of RNA variant scans (doi:10.1101/gad.245936.114).
Variants at the floor of the assay are shown more often than the library holds them.

B1: tRNA (parent)
chain: CUCUCGGUAGCCAAGUUGGUUUAAGGCGCAAGACUUUAAUUUAUCACUACGAAAUCUUGAGAUCGGGCGUUCGACUCGCCCCCGGGAGAUUUUUUCCUCGAGCAA

Variants of: B1
Assay: nonsense suppression (GFP-seq) (ratio to wild type); higher = more function; SUP4oc tRNA, yeast GFP reporter sort-seq
Outline: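 Sorted GFP/RFP bins of yeast were each Illumina-sequenced with a phred ≥30 cutoff; the cells held a genome-integrated ochre-suppressor tRNA variant from a library with ~3% random mutations, a galactose-driven GFP ochre reporter, and RFP. Culture was in raffinose/galactose medium containing 80 mg/L adenine. Nonsense suppression, termed GFPSEQ, is the median GFP/RFP of the bins weighted by each variant's estimated cell share per bin, relative to the unmutated parent tRNA, for variants reaching ≥100 reads and ≥30 cells.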

C11U A62U G73A C82U A89G and C11U A74G cannot be ordered by nonsense suppression: ≤ 0.026 for the first, ≤ 0.026 for the second.

C11U A87C and C11U C12A A31G C83G cannot be ordered by nonsense suppression: ≤ 0.026 for the first, ≤ 0.026 for the second.

C11U C12A G88A and C11U C12G A89U cannot be ordered by nonsense suppression: ≤ 0.026 for the first, ≤ 0.026 for the second.

C11U C27G A74G and C11U C27U A33G C75A C82G cannot be ordered by nonsense suppression: ≤ 0.026 for the first, ≤ 0.026 for the second.

C11U C29G and C11U C29G U76G cannot be ordered by nonsense suppression: ≤ 0.026 for the first, ≤ 0.026 for the second.

C11U C29U and C11U C29U A31G cannot be ordered by nonsense suppression: ≤ 0.026 for the first, ≤ 0.026 for the second.

C11U C29U A54C G88U and C11U C29U C64A cannot be ordered by nonsense suppression: ≤ 0.026 for the first, ≤ 0.026 for the second.

C11U C29U C77A and C11U C29U G78A cannot be ordered by nonsense suppression: ≤ 0.026 for the first, ≤ 0.026 for the second.

C11U C29U U57A and C11U C29U U76A cannot be ordered by nonsense suppression: ≤ 0.026 for the first, ≤ 0.026 for the second.

C11U C34A and C11U C34A G66A cannot be ordered by nonsense suppression: ≤ 0.026 for the first, ≤ 0.026 for the second.

C11U C34U G88U and C11U C56A U70A cannot be ordered by nonsense suppression: ≤ 0.026 for the first, ≤ 0.026 for the second.

C11U C56U G65C and C11U C64U cannot be ordered by nonsense suppression: ≤ 0.026 for the first, ≤ 0.026 for the second.

C11U C72G A74U and C11U C77U cannot be ordered by nonsense suppression: ≤ 0.026 for the first, ≤ 0.026 for the second.

C11U C79A A87C and C11U C81A cannot be ordered by nonsense suppression: ≤ 0.026 for the first, ≤ 0.026 for the second.

C11U C83G and C11U C83U cannot be ordered by nonsense suppression: ≤ 0.026 for the first, ≤ 0.026 for the second.

C11U G15C A30G and C11U G15U A24G A60U cannot be ordered by nonsense suppression: ≤ 0.026 for the first, ≤ 0.026 for the second.

C11U G15U U17G and C11U G18A C34U cannot be ordered by nonsense suppression: ≤ 0.026 for the first, ≤ 0.026 for the second.

C11U G18A U55A and C11U G18C A24U cannot be ordered by nonsense suppression: ≤ 0.026 for the first, ≤ 0.026 for the second.

C11U G18C G26U U57G A60U U76A C79G C80U and C11U G18U G61C cannot be ordered by nonsense suppression: ≤ 0.026 for the first, ≤ 0.026 for the second.

C11U G19C A87C and C11U G19U cannot be ordered by nonsense suppression: ≤ 0.026 for the first, ≤ 0.026 for the second.

C11U G25C and C11U G25C C34U cannot be ordered by nonsense suppression: ≤ 0.026 for the first, ≤ 0.026 for the second.

C11U G26A G66C C75A C79G C80G and C11U G26C C27A cannot be ordered by nonsense suppression: ≤ 0.026 for the first, ≤ 0.026 for the second.

C11U G26C U57G and C11U G28A A31G A54U C64U C77A cannot be ordered by nonsense suppression: ≤ 0.026 for the first, ≤ 0.026 for the second.

C11U G28A A33G and C11U G28C A33C G88C cannot be ordered by nonsense suppression: ≤ 0.026 for the first, ≤ 0.026 for the second.

C11U G28U A60C and C11U G32U G69C G85C cannot be ordered by nonsense suppression: ≤ 0.026 for the first, ≤ 0.026 for the second.

C11U G61A A62C U70C A74G and C11U G61C A87G cannot be ordered by nonsense suppression: ≤ 0.026 for the first, ≤ 0.026 for the second.

C11U G61C A87U and C11U G61C G65C U76C C83A cannot be ordered by nonsense suppression: ≤ 0.026 for the first, ≤ 0.026 for the second.

C11U G61U G78A and C11U G66U A74G cannot be ordered by nonsense suppression: ≤ 0.026 for the first, ≤ 0.026 for the second.

C11U G69U A74C G78C and C11U G73A G88U cannot be ordered by nonsense suppression: ≤ 0.026 for the first, ≤ 0.026 for the second.

C11U G73U C80U and C11U G84C A89C cannot be ordered by nonsense suppression: ≤ 0.026 for the first, ≤ 0.026 for the second.

C11U G86U and C11U U16A A62G cannot be ordered by nonsense suppression: ≤ 0.026 for the first, ≤ 0.026 for the second.

C11U U16A G69C C80G G88A and C11U U16C C68G cannot be ordered by nonsense suppression: ≤ 0.026 for the first, ≤ 0.026 for the second.

C11U U17C G19U A54C A89G and C11U U20A A30U A33C cannot be ordered by nonsense suppression: ≤ 0.026 for the first, ≤ 0.026 for the second.

C11U U20C and C11U U21C G61A A87G cannot be ordered by nonsense suppression: ≤ 0.026 for the first, ≤ 0.026 for the second.

C11U U21C G65C and C11U U21G A60G G88C cannot be ordered by nonsense suppression: ≤ 0.026 for the first, ≤ 0.026 for the second.

Going from C11U U21G G59U to C11U U22C, the nonsense suppression rises from ≤ 0.026 to 0.0289.

C11U U35G G59U A87C and C11U U55A C82G C83A cannot be ordered by nonsense suppression: ≤ 0.026 for the first, ≤ 0.026 for the second.

C11U U55A G61C G88C and C11U U55C C81G cannot be ordered by nonsense suppression: ≤ 0.026 for the first, ≤ 0.026 for the second.

C11U U55G G66C and C11U U55G G67C cannot be ordered by nonsense suppression: ≤ 0.026 for the first, ≤ 0.026 for the second.

C11U U57C G65C and C11U U57G C83A cannot be ordered by nonsense suppression: ≤ 0.026 for the first, ≤ 0.026 for the second.

C11U U58C U70A G86A and C11U U58G cannot be ordered by nonsense suppression: ≤ 0.026 for the first, ≤ 0.026 for the second.

C11U U58G U63A A74G and C11U U63C C80U cannot be ordered by nonsense suppression: ≤ 0.026 for the first, ≤ 0.026 for the second.
